Experimental data: patent publication US5854204A, “Aβ peptides that modulate β-amyloid aggregation” (priority 1996, dated 1998)
Part of at least one peptide drawing is inferred or uncertain, most often the ends. Square brackets hold non-standard residues; d marks the D form. Peptide text beside a SMILES is read from it. * marks the point of attachment. Cholyl = C[C@H](CCC(=O)*)[C@H]1CC[C@H]2[C@@H]3[C@H](O)C[C@@H]4C[C@H](O)CC[C@]4(C)[C@H]3C[C@H](O)[C@]12C; Tyr(3-I) = N[C@@H](Cc1ccc(O)c(I)c1)C(=O)O

These molecules were tested against Aβ1-40 (Homo sapiens, UniProt P05067). Settings: Table V; 33 mole % inhibitor.
Chain of Aβ1-40 (P05067 672-711): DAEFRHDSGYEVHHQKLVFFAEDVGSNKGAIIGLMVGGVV
For CC(C)C[C@H](NC(=O)CC[C@@H](C)[C@H]1CC[C@H]2[C@@H]3[C@H](O)C[C@@H]4C[C@H](O)CC[C@]4(C)[C@H]3C[C@H](O)[C@]12C)C(=O)N[C@H](C(=O)N[C@@H](Cc1ccccc1)C(=O)N[C@@H](Cc1ccccc1)C(=O)O)C(C)C [PPI-380], the “ΔLag (ratio of lag time with test compound to lag time of control)” value was 1.8. CC(C)C[C@H](NC(=O)CC[C@@H](C)[C@H]1CC[C@H]2[C@@H]3[C@H](O)C[C@@H]4C[C@H](O)CC[C@]4(C)[C@H]3C[C@H](O)[C@]12C)C(=O)N[C@H](C(=O)N[C@@H](Cc1ccccc1)C(=O)N[C@@H](Cc1ccccc1)C(=O)N[C@@H](CCCCN)C(=O)O)C(C)C [PPI-407] (Cholyl-LVFFK-OH) was tested, and the “ΔLag (ratio of lag time with test compound to lag time of control)” value was > 5.

Same assay, conditions: Table V; 100 mole % inhibitor relative to Aβ1-40
In the case of CC(C)C[C@H](NC(=O)CC[C@@H](C)[C@H]1CC[C@H]2[C@@H]3[C@H](O)C[C@@H]4C[C@H](O)CC[C@]4(C)[C@H]3C[C@H](O)[C@]12C)C(=O)N[C@H](C(=O)N[C@@H](Cc1ccccc1)C(=O)N[C@@H](Cc1ccccc1)C(=O)N[C@@H](C)C(=O)N[C@@H](CCC(=O)O)C(=O)O)C(C)C [PPI-379] (Cholyl-LVFFAE-OH), the “ΔLag (ratio of lag time with test compound to lag time of control)” value is reported as 1.4. For CC(C)C[C@H](NC(=O)CC[C@@H](C)[C@H]1CC[C@H]2[C@@H]3[C@H](O)C[C@@H]4C[C@H](O)CC[C@]4(C)[C@H]3C[C@H](O)[C@]12C)C(=O)N[C@H](C(=O)N[C@@H](Cc1ccccc1)C(=O)N[C@@H](Cc1ccccc1)C(=O)N[C@H](C)C(=O)O)C(C)C [PPI-381], the “ΔLag (ratio of lag time with test compound to lag time of control)” value was 2.3. In the case of CC(C)C[C@H](NC(=O)CC[C@@H](C)[C@H]1CC[C@H]2[C@@H]3[C@H](O)C[C@@H]4C[C@H](O)CC[C@]4(C)[C@H]3C[C@H](O)[C@]12C)C(=O)N[C@H](C(=O)N[C@@H](Cc1ccccc1)C(=O)N[C@@H](Cc1ccccc1)C(=O)N[C@@H](C)C(N)=O)C(C)C [PPI-382], the “ΔLag (ratio of lag time with test compound to lag time of control)” value is reported as 1.0. CC(C)[C@H](NC(=O)[C@H](C)NC(=O)CC[C@@H](C)[C@H]1CC[C@H]2[C@@H]3[C@H](O)C[C@@H]4C[C@H](O)CC[C@]4(C)[C@H]3C[C@H](O)[C@]12C)C(=O)N[C@@H](Cc1ccccc1)C(=O)N[C@@H](Cc1ccccc1)C(=O)N[C@@H](C)C(=O)O [PPI-388] (Cholyl-AVFFA-OH) was tested, and the “ΔLag (ratio of lag time with test compound to lag time of control)” value was 1.4. In the case of CC(C)C[C@H](NC(=O)CC[C@@H](C)[C@H]1CC[C@H]2[C@@H]3[C@H](O)C[C@@H]4C[C@H](O)CC[C@]4(C)[C@H]3C[C@H](O)[C@]12C)C(=O)N[C@@H](C)C(=O)N[C@@H](Cc1ccccc1)C(=O)N[C@@H](Cc1ccccc1)C(=O)N[C@@H](C)C(=O)O [PPI-389] (Cholyl-LAFFA-OH), the “ΔLag (ratio of lag time with test compound to lag time of control)” value is reported as 1.5. For CC(C)C[C@H](NC(=O)CC[C@@H](C)[C@H]1CC[C@H]2[C@@H]3[C@H](O)C[C@@H]4C[C@H](O)CC[C@]4(C)[C@H]3C[C@H](O)[C@]12C)C(=O)N[C@H](C(=O)N[C@@H](C)C(=O)N[C@@H](Cc1ccccc1)C(=O)N[C@@H](C)C(=O)O)C(C)C [PPI-390] (Cholyl-LVAFA-OH), the “ΔLag (ratio of lag time with test compound to lag time of control)” value was 2.7. In the case of CC(C)C[C@H](NC(=O)CC[C@@H](C)[C@H]1CC[C@H]2[C@@H]3[C@H](O)C[C@@H]4C[C@H](O)CC[C@]4(C)[C@H]3C[C@H](O)[C@]12C)C(=O)N[C@H](C(=O)N[C@@H](Cc1ccccc1)C(=O)N[C@@H](C)C(=O)N[C@@H](C)C(=O)O)C(C)C [PPI-391] (Cholyl-LVFAA-OH), the “ΔLag (ratio of lag time with test compound to lag time of control)” value is reported as 1.6. For CC(C)[C@H](NC(=O)CC[C@@H](C)[C@H]1CC[C@H]2[C@@H]3[C@H](O)C[C@@H]4C[C@H](O)CC[C@]4(C)[C@H]3C[C@H](O)[C@]12C)C(=O)N[C@@H](Cc1ccccc1)C(=O)N[C@@H](Cc1ccccc1)C(=O)N[C@@H](C)C(=O)O [PPI-392] (Cholyl-VFFA-OH), the “ΔLag (ratio of lag time with test compound to lag time of control)” value was 2.0. CC(C)C[C@H](NC(=O)CC[C@@H](C)[C@H]1CC[C@H]2[C@@H]3[C@H](O)C[C@@H]4C[C@H](O)CC[C@]4(C)[C@H]3C[C@H](O)[C@]12C)C(=O)N[C@H](C(=O)N[C@@H](Cc1ccccc1)C(=O)O)C(C)C [PPI-393] was tested, and the “ΔLag (ratio of lag time with test compound to lag time of control)” value was 1.3. In the case of CC(C)[C@H](NC(=O)CC[C@@H](C)[C@H]1CC[C@H]2[C@@H]3[C@H](O)C[C@@H]4C[C@H](O)CC[C@]4(C)[C@H]3C[C@H](O)[C@]12C)C(=O)N[C@@H](Cc1ccccc1)C(=O)N[C@@H](Cc1ccccc1)C(=O)O [PPI-394], the “ΔLag (ratio of lag time with test compound to lag time of control)” value is reported as 1.8. C[C@H](NC(=O)[C@H](Cc1ccccc1)NC(=O)[C@H](Cc1ccccc1)NC(=O)CC[C@@H](C)[C@H]1CC[C@H]2[C@@H]3[C@H](O)C[C@@H]4C[C@H](O)CC[C@]4(C)[C@H]3C[C@H](O)[C@]12C)C(=O)O [PPI-395] was tested, and the “ΔLag (ratio of lag time with test compound to lag time of control)” value was 1.0. For CC(C)C[C@H](NC(=O)CC[C@@H](C)[C@H]1CC[C@H]2[C@@H]3[C@H](O)C[C@@H]4C[C@H](O)CC[C@]4(C)[C@H]3C[C@H](O)[C@]12C)C(=O)N[C@H](C(=O)N[C@@H](Cc1ccc(O)c(I)c1)C(=O)N[C@@H](Cc1ccccc1)C(=O)N[C@@H](C)C(=O)O)C(C)C [PPI-396] (Cholyl-LV[Tyr(3-I)]FA-OH), the “ΔLag (ratio of lag time with test compound to lag time of control)” value was > 5. In the case of CC(C)C[C@H](NC(=O)CC[C@@H](C)[C@H]1CC[C@H]2[C@@H]3[C@H](O)C[C@@H]4C[C@H](O)CC[C@]4(C)[C@H]3C[C@H](O)[C@]12C)C(=O)N[C@H](C(=O)N[C@@H](Cc1ccccc1)C(=O)N[C@@H](Cc1ccc(O)c(I)c1)C(=O)N[C@@H](C)C(=O)O)C(C)C [PPI-397] (Cholyl-LVF[Tyr(3-I)]A-OH), the “ΔLag (ratio of lag time with test compound to lag time of control)” value is reported as > 5. In the case of CC(C)[C@H](NC(=O)[C@H](C)NC(=O)CC[C@@H](C)[C@H]1CC[C@H]2[C@@H]3[C@H](O)C[C@@H]4C[C@H](O)CC[C@]4(C)[C@H]3C[C@H](O)[C@]12C)C(=O)N[C@@H](C)C(=O)N[C@@H](Cc1ccccc1)C(=O)N[C@@H](C)C(=O)O [PPI-400] (Cholyl-AVAFA-OH), the “ΔLag (ratio of lag time with test compound to lag time of control)” value is reported as 1.0. CC(C)C[C@H](NC(=O)CC[C@@H](C)[C@H]1CC[C@H]2[C@@H]3CC[C@@H]4C[C@H](O)CC[C@]4(C)[C@H]3C[C@H](O)[C@]12C)C(=O)N[C@H](C(=O)N[C@@H](Cc1ccccc1)C(=O)N[C@@H](Cc1ccccc1)C(=O)N[C@@H](C)C(=O)O)C(C)C [PPI-424] was tested, and the “ΔLag (ratio of lag time with test compound to lag time of control)” value was 3.0. With CC(C)C[C@H](NC(=O)CC[C@@H](C)[C@H]1CC[C@H]2[C@@H]3CC[C@@H]4C[C@H](O)CC[C@]4(C)[C@H]3CC[C@]12C)C(=O)N[C@H](C(=O)N[C@@H](Cc1ccccc1)C(=O)N[C@@H](Cc1ccccc1)C(=O)N[C@@H](C)C(=O)O)C(C)C [PPI-425] the “ΔLag (ratio of lag time with test compound to lag time of control)” value was 2.8. In the case of CC(C)C[C@H](NC(=O)[C@@H](NC(=O)[C@H](Cc1ccccc1)NC(=O)[C@H](Cc1ccccc1)NC(=O)CC[C@@H](C)[C@H]1CC[C@H]2[C@@H]3[C@H](O)C[C@@H]4C[C@H](O)CC[C@]4(C)[C@H]3C[C@H](O)[C@]12C)C(C)C)C(=O)N[C@@H](C)C(=O)O [PPI-426] (Cholyl-FFVLA-OH), the “ΔLag (ratio of lag time with test compound to lag time of control)” value is reported as > 5. CC(C)[C@H](NC(=O)[C@H](Cc1ccccc1)NC(=O)[C@H](Cc1ccccc1)NC(=O)CC[C@@H](C)[C@H]1CC[C@H]2[C@@H]3[C@H](O)C[C@@H]4C[C@H](O)CC[C@]4(C)[C@H]3C[C@H](O)[C@]12C)C(=O)O [PPI-429] was tested, and the “ΔLag (ratio of lag time with test compound to lag time of control)” value was 2.2. For CC(C)C[C@H](NC(=O)[C@@H](NC(=O)[C@H](Cc1ccccc1)NC(=O)[C@H](Cc1ccccc1)NC(=O)CC[C@@H](C)[C@H]1CC[C@H]2[C@@H]3[C@H](O)C[C@@H]4C[C@H](O)CC[C@]4(C)[C@H]3C[C@H](O)[C@]12C)C(C)C)C(=O)O [PPI-430] (Cholyl-FFVL-OH), the “ΔLag (ratio of lag time with test compound to lag time of control)” value was 4.1. CC(C)C[C@@H](NC(=O)CC[C@@H](C)[C@H]1CC[C@H]2[C@@H]3[C@H](O)C[C@@H]4C[C@H](O)CC[C@]4(C)[C@H]3C[C@H](O)[C@]12C)C(=O)N[C@@H](C(=O)N[C@H](Cc1ccccc1)C(=O)N[C@H](Cc1ccccc1)C(=O)N[C@H](C)C(=O)O)C(C)C [PPI-433] was tested, and the “ΔLag (ratio of lag time with test compound to lag time of control)” value was 2.8. In the case of C[C@H](CCC(=O)NCC(=O)N[C@@H](Cc1ccccc1)C(=O)N[C@@H](Cc1ccccc1)C(=O)O)[C@H]1CC[C@H]2[C@@H]3[C@H](O)C[C@@H]4C[C@H](O)CC[C@]4(C)[C@H]3C[C@H](O)[C@]12C [PPI-438], the “ΔLag (ratio of lag time with test compound to lag time of control)” value is reported as 1.0.
